The supplement of paper PMC3334620
The full ranking holds about 33,000 sequences; the median of “E-score (-0.5 to 0.5)” is about -0.01, and the highest 2% start at about 0.26. The list shows a part of the results.

Biological target: Ste12 (UniProt P13574)
Assay: PBM E-score (8-mer binding enrichment) (E-score (-0.5 to 0.5)); higher = stronger / more preferred TF binding; most listed sequences are background and not binding sites
Conditions: protein concentration: 200 nM; construct: GST-DNA-binding domain
In short: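 Masliner-normalised scans of fluorescent anti-GST signal were the basis for scoring. That signal came from GST-tagged yeast transcription factors applied at about 100-200 nM to double-stranded universal all-10-mer Agilent arrays on fresh or once-stripped slides. Each ungapped eight-base word, pooled with its reverse complement, received an E-score from the Universal PBM Analysis Suite.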

| Sequence | PBM E-score |
| --- | --- |
| ACACAACC | 0.0246 |
| GTCAGAAA | 0.179 |
| CATGATTC | 0.023 |
| GGCAAGTA | 0.044 |
| AATAAAAC | 0.245 |
| CCTAGGCG | -0.165 |
| TTACTAAA | 0.186 |
| GTATTCCA | 0.0531 |
| CGAAGTGC | 0.0362 |
| CACACGCG | 0.186 |
| CCGGACGA | -0.0191 |
| CCTTCAGA | -0.125 |
| AGCGCTAG | -0.0146 |
| CTACCTCA | 0.123 |
| CATGTCCG | -0.234 |
| ACGCAAGG | -0.151 |
| AGACCGGG | -0.133 |
| CCCGGGCA | 0.118 |
| CTCGAATC | -0.0397 |
| TACCGGCA | -0.0901 |
| AGGGTTGA | 0.0511 |
| AAATCCTT | -0.063 |
| CACCGGTC | -0.171 |
| CAGTAGGA | -0.0478 |
| ATAACAGA | 0.115 |

| Sequence | PBM E-score |
| --- | --- |
| ACCGACTG | -0.132 |
| AACAAAAC | 0.236 |
| CCCGTTCC | -0.0483 |
| AAACTTAA | 0.298 |
| AGTTAGGG | -0.121 |
| GAGTCCCA | 0.00079 |
| ATTACGAC | 0.0587 |
| ACACAAGA | 0.182 |
| CACAAACA | 0.107 |
| CTACATTA | 0.0935 |
| AGAACACC | 0.00242 |
| CCATTAGA | -0.125 |
| ATCTAATG | 0.0365 |
| ATGTTAGG | 0.133 |
| AGAAGTCT | -0.197 |
| GAGATTCC | 0.134 |
| AATCTTCC | -0.0551 |
| AGATTTGA | 0.226 |
| GCGCCCTA | -0.12 |
| ATCTTTCA | 0.202 |
| AGTCTTGC | -0.158 |
| GGGGTTCA | -0.0134 |
| AGTCCAAC | -0.22 |
| AATAAGTA | 0.132 |
| CCGGTCGC | -0.0319 |

| Sequence | PBM E-score |
| --- | --- |
| GCCCAGAC | -0.161 |
| CCTGAAAA | 0.0508 |
| ATAGTGAT | -0.019 |
| GTGTACGA | -0.116 |
| ACAAGCAC | -0.0849 |
| AAAAAGTG | 0.195 |
| AAGTGTAG | 0.0553 |
| CGGTCCGA | -0.0887 |
| ACTCTTAC | 0.0185 |
| AATTGAAG | 0.07 |
| AGAAGCGC | 0.0778 |
| ACTAGGAG | -0.0207 |
| TAGAAAGA | 0.0083 |
| AATAGGAG | -0.148 |
| GACGCAGC | -0.258 |
| GCCGTGGA | -0.0955 |
| CATTTATA | 0.189 |
| CGACACTA | 0.0711 |
| AGAACAAC | -0.0745 |
| CTGGTTCA | -0.0394 |
| CATACCCA | 0.0548 |
| AGGGGACG | -0.0137 |
| AAGCCCTT | -0.252 |
| GGGATCAA | 0.0375 |
| GACGGACA | -0.0913 |

| Sequence | PBM E-score |
| --- | --- |
| AGCCTTAT | 0.0824 |
| GAGAGAGC | -0.13 |
| CGGCCGAA | 0.00393 |
| CGGTGGAG | 0.0491 |
| CTCAAGCC | -0.11 |
| AGCATACA | 0.0213 |
| GGTAGCAC | -0.365 |
| GTTTCGGA | 0.334 |
| GAATGCGA | 0.0116 |
| CTATCCAG | -0.13 |
| AGTAGCTA | 0.0841 |
| CCTCCCAG | -0.0668 |
| CACAACGC | 0.0782 |
| AGGCCGTG | -0.0524 |
| AAGTAATT | 0.136 |
| ATTATTTC | 0.25 |
| ACCCTCAA | -0.0731 |
| GGGACCCA | -0.0901 |
| AATTTCCG | 0.211 |
| ATATCAGG | -0.0467 |
| ATCCTTGA | -0.117 |
| CGAGATGC | -0.0585 |
| CACGCGCA | -0.0337 |
| AATAGCTG | -0.184 |
| GGTGGGAA | 0.127 |

| Sequence | PBM E-score |
| --- | --- |
| CCTCCGCC | -0.109 |
| ATTTCAAA | 0.272 |
| ACGACTGA | -0.0689 |
| AGTAGGCG | -0.256 |
| CTATAGTA | -0.0984 |
| CAACTCGA | 0.0314 |
| TGAAACCA | 0.438 |
| CGCCATGA | -0.06 |
| TACTGTAA | 0.0391 |
| ATTGTCTC | 0.0736 |
| AACCCCTG | -0.0957 |
| TTCGCAAA | 0.191 |
| GCAACGAA | 0.0929 |
| ATCTAAAC | 0.127 |
| AAGGTCTC | -0.0597 |
| AGAATATC | 0.00795 |
| ACGAACGA | -0.0257 |
| AGTTGATC | 0.0522 |
| ACTGCCAA | 0.0998 |
| AGGAGAAT | -0.0103 |
| AGACATGG | -0.0301 |
| GTTTGTGA | 0.0106 |
| CGTCATGC | -0.0786 |
| ATCAATGG | -0.0615 |
| AACTGAGC | -0.1 |

| Sequence | PBM E-score |
| --- | --- |
| CCGATAGG | -0.0559 |
| AGACGTGA | 0.0132 |
| CCCAGCGC | -0.221 |
| AATTGCAA | 0.101 |
| CATGCGCC | -0.0842 |
| AGTTCATG | 0.106 |
| CAATCAGC | -0.129 |
| AACAGGTT | 0.0874 |
| ATGACGTC | -0.0322 |
| AATTGATG | 0.211 |
| ACTGGCAT | -0.178 |
| CAATTATG | 0.0688 |
| ACGCATAT | 0.0405 |
| CACACCTA | -0.083 |
| CGGGGCCA | -0.00818 |
| ATATTGAT | 0.248 |
| AATCCCAA | 0.148 |
| ATCAAACA | 0.27 |
| CCTCGTTC | 0.00191 |
| TATTACGA | 0.107 |
| TTTCGAAA | 0.192 |
| ATTAGACA | -0.0414 |
| ACGGAGAT | -0.112 |
| AAATTAAC | 0.166 |
| AGCCGATG | -0.171 |

| Sequence | PBM E-score |
| --- | --- |
| AGGTACTG | -0.135 |
| GGGACCAC | -0.0322 |
| CTGCCACC | -0.0158 |
| ACAAGCGC | 0.0675 |
| ACCGAATC | 0.0598 |
| CAGTCGCA | -0.0488 |
| ACGCATCT | -0.155 |
| GCATGTCC | -0.0404 |
| CTGTTCTA | -0.0904 |
| ACGCATAG | -0.145 |
| CTCGGAAC | -0.0133 |
| ATCGTGTA | -0.0948 |
| TGTAGACA | -0.0491 |
| CATGATAA | 0.135 |
| CGGCTCAG | -0.0358 |
| CGATTAAA | 0.073 |
| GATCTGAC | -0.00638 |
| ATTTGGTA | 0.156 |
| CTACTCTA | 0.0458 |
| AGCGCGGC | 0.0144 |
| CGGGTAAA | 0.148 |
| CCCGGGTC | -0.162 |
